Experimental data reported in publication PMC4336329 (PLoS ONE, 2015).
Screen size: about 310,000 compounds; about 2,200 (0.71%) showed an effect of 50% or more. Effects have a minus sign here. The list shows a part of the results.

Biological target: human ether-à-go-go-related gene (hERG) potassium channel (human, UniProt Q12809)
Test: primary screen, population patch clamp on CHO cells stably expressing hERG

Sequence of human ether-à-go-go-related gene (hERG) potassium channel (Q12809 whole entry, looked up): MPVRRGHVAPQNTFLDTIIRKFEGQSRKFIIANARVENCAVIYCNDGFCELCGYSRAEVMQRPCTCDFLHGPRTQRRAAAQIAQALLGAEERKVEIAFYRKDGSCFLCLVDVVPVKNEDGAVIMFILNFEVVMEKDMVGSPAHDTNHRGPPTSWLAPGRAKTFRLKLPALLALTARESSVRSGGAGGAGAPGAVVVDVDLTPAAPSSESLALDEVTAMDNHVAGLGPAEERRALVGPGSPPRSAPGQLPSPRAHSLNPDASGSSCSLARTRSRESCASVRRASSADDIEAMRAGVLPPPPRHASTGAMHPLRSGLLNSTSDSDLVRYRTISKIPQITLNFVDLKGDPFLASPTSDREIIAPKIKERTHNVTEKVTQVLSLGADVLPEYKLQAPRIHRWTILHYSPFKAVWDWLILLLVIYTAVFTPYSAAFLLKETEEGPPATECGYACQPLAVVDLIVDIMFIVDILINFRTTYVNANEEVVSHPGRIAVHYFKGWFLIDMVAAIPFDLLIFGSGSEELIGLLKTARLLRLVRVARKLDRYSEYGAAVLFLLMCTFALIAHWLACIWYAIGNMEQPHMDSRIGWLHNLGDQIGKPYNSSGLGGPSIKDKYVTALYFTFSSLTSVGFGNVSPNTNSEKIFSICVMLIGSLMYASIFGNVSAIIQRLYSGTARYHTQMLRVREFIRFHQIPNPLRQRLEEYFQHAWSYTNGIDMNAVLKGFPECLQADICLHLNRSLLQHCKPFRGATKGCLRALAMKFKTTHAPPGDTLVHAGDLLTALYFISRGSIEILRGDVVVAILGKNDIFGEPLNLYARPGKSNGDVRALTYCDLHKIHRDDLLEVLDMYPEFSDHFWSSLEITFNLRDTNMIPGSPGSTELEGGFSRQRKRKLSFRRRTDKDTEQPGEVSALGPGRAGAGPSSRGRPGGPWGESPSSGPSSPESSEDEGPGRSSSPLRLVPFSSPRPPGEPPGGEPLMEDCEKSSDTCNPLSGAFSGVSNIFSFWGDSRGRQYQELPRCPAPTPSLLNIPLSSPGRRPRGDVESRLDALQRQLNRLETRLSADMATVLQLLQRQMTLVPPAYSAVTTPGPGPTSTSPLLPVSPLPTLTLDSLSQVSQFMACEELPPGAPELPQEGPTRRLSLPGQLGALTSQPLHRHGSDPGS

Compound	hERG current change (%, negative = inhibition) at 1uM [%]
CC12COC3(C(=O)Nc4ccccc4)CC1CCC32C (stereo not shown)	16.2
CN(C)c1ccc(/C=C/C(=O)c2ccccc2O)cc1	16.7
Cc1ccc(CCNC(=O)C2CCCN(S(=O)(=O)c3c(C)noc3/C=C/N(C)C)C2)cc1 (stereo not shown)	10.3
Cc1ccc(-c2nc(C=Nc3cccc(C)c3)c(O)o2)cc1	23.4
CCC1CCc2sc(C(=O)OCC(=O)N(CCOC)c3c(N)n(Cc4ccccc4)c(=O)[nH]c3=O)cc2C1 (stereo not shown)	-2.31
CN(CCCC1CCCC1)C(=O)CC1C(=O)NCCN1Cc1cccc(F)c1F (stereo not shown)	3.4
ON1C(c2ccc(Cl)cc2Cl)N(O)[C@H]2CCCC[C@H]21 (stereo partly shown)	10.2
Cc1ccc(S(=O)(=O)N(C)C)cc1NC(=O)COC(=O)c1sc2cc(Cl)ccc2c1Cl	10.1
C=C(C)CN(CC)C(=O)CSc1nc(O)cc(=O)n1C1CCCC1	20.7
O=S(=O)(c1ccccc1)c1nc(-c2ccco2)oc1NCCCN1CCOCC1	5.16
COCCNC(=O)/C(C#N)=C/c1ccc(O)c([N+](=O)[O-])c1	11.5
CN(C)c1nccc(Nc2ccccc2)c1C#N	14.1
CC(=O)c1c(C)oc2ccc(N(C(C)=O)S(=O)(=O)c3cccc4cccnc34)cc12	10.7
O=S(=O)(c1ccc(Br)cc1)n1ccc2ccccc21	12.5
O=C(COC(=O)c1ccc2c(c1)S(=O)(=O)N=C1CCCCCN12)NCc1cccs1	9.64
COc1ccc2nc(NC(=O)CCc3nc(C4=CCN(C)CC4)no3)sc2c1	6.55
CC(=O)N/C(=C/c1ccc(OS(=O)(=O)c2ccc(C)cc2)cc1)C(=O)NCCO	0.32
O=C(NNS(=O)(=O)c1ccc(F)cc1)c1cnn(-c2ccccc2)c1C(F)(F)F	1.13
CCOC(=O)c1nnn(CC(=O)Nc2cccc(Cl)c2C)c1C(=O)OCC	8.44
O=c1[nH][nH]c(C(F)(F)F)c1C=NCc1cccc(Cl)c1	5.43
CCOc1ccc(NC(=O)CN(C)CC(=O)Nc2ccccc2C#N)cc1OCC	14.1
CCN(c1ccccc1)S(=O)(=O)c1ccc(NN)nc1	7.09

Compound	hERG current change (%, negative = inhibition) at 1uM [%]
COc1ccc(S(=O)(=O)N2CCC(C(=O)O)(c3ccccc3)CC2)cc1	15.6
CC(=O)Nc1ccc2nsnc2c1	14.9
COc1ccc2c(C)cc(SCn3nnc4ccccc4c3=O)nc2c1	8.97
N#Cc1ccccc1Cn1c(=O)n(CCCC(=O)NCc2ccc3c(c2)OCO3)c(=O)c2ccccc21	-0.975
Cc1ccccc1NC(=O)Cn1nnc(-c2ccc(CN3CCC(C)CC3)cc2)n1	0.785
CC(C)OC(=O)C1C(=O)NC2(C)CC1c1ccccc1O2 (stereo not shown)	20.8
COc1ccc(NC(=O)CN2C(=O)COc3ccc(S(=O)(=O)N4CCCCCC4)cc32)cc1	15.1
CCCOc1c(OC)cccc1C1CC(=O)Nc2cc(OC)c(OC)c(OC)c21 (stereo not shown)	3.27
Cc1ccc(C)n1-c1ccc(-n2cnnn2)cc1	7.48
Cl.O=C(CN1CCCC(O)C1)N1c2ccccc2Sc2ccc(C(F)(F)F)cc21 (stereo not shown)	11.3
CCCCCCCc1ccc(C2NC(=S)NC3=C2C(=O)c2ccccc23)cc1 (stereo not shown)	8.33
CCOC(=O)[C@@H]1[C@H]2COc3ccccc3[C@H]2N2C(=O)N(c3cccc(Cl)c3)C(=O)[C@@]12C	24.7
Br.CCOC(=O)CCCc1sc(N)nc1-c1[nH]c(=O)[nH]c1C	14.9
CCCSc1nc(N2CCCC2)c2c(c1C#N)CC(C)(C)OC2	10.1
O=c1[nH]c(N/N=C/c2ccccc2Br)nnc1-c1ccccc1	9.67
COc1ccc(NC(=O)CC2SC(=NCc3ccccc3OC)NC2=O)cc1 (stereo not shown)	10.2
O=C(NCCOc1ccc(Cl)cc1)C1CC(=O)N(c2ccc(F)cc2)C1 (stereo not shown)	-43.8
CCc1ccc(NC(=O)c2cnn3c(C(F)F)cc(C)nc23)cc1	-7.69
COc1ccc(/C=C(\C#N)C(=O)OCC(=O)NCc2ccccc2Cl)cc1	7.24
CC(CNc1nc2ccccc2n2cnnc12)c1ccccc1 (stereo not shown)	2.21
Cc1ccc(C(CNS(=O)(=O)c2ccc(Cl)cc2)N2CCN(C)CC2)cc1 (stereo not shown)	-42.1
O=C1c2ccsc2SCCN1Cc1c(F)cccc1Cl	4.77

Compound	hERG current change (%, negative = inhibition) at 1uM [%]
CN1CCN(CC(=O)Nc2nc3c(s2)CCCC3)CC1	11.6
COc1ccc(N(CC(=O)NCCC2=CCCCC2)S(=O)(=O)c2ccccc2F)cc1	10.4
CCOC(=O)C1=C(C)NC(=O)NC1C(C)C (stereo not shown)	12.1
O=c1c2ccccc2nc(-c2ccccc2)n1-c1ccccc1	10.9
CC[n+]1ccc(C)c2cc(SC(F)(F)F)ccc21.Cc1ccc(S(=O)(=O)[O-])cc1	9.51
CC(C)(C)C1CCc2c(sc(NC(=O)c3cc(C4CC4)on3)c2C#N)C1 (stereo not shown)	7.34
O=C(COC(=O)CNC(=O)c1sc2ccccc2c1Cl)Nc1c(Cl)cc(Cl)cc1Cl	9.38
Cc1cccc(Cl)c1OCCCn1ccnc1.O=C(O)C(=O)O	11.5
CN(C(=O)CN1C(=O)S/C(=C\c2ccc(F)cc2)C1=O)C1CCS(=O)(=O)C1 (stereo not shown)	1.16
Cc1ccc(S(=O)(=O)N2CCN(S(=O)(=O)c3ccccc3)C2c2ccc(N(C)C)cc2)cc1 (stereo not shown)	13.8
O=[N+]([O-])c1ccc(Nc2ccccc2F)nc1	6
CC(=O)c1ccc(N=c2scc(C)n2C(C)C)cc1	8.93
COc1ccc(C)cc1NC(=O)CSc1nnc(-c2ccco2)n1Cc1ccco1	11.5
COC(=O)CSc1nnc(-c2ccoc2C)n1-c1ccc(C)cc1	3.86
Cc1ccc(-c2nnc(CSc3nc4cc5c(cc4cc3C)OCO5)o2)cc1	10.1
CCOC(=O)C1=NN(c2ccccc2)C(=O)C1	11.1
CCC(C)[C@@H](N)C(=O)N/N=C/c1cccc2nccnc12.Cl (stereo partly shown)	9.14
CCC(C(=O)NC(C)(C)C)N(Cc1ccc(F)cc1)C(=O)c1snc(C(N)=O)c1N (stereo not shown)	17.5
Cc1cc(C)cc(N(C(=O)C(F)(F)F)C(C(=O)NC2CCCCC2)c2cccs2)c1 (stereo not shown)	0.475
Cl.O=C(CN1CCOCC1)c1ccc(Br)cc1	13.3
COc1ccc2c(CC(=O)OCC(=O)c3ccccc3OC)coc2c1	1.27
Cc1nnc(NCCO)c2ccccc12	14.7

Compound	hERG current change (%, negative = inhibition) at 1uM [%]
CC1(C)CC(=O)N(CC(=O)NCc2ccc(F)cc2)c2ccccc2S1(=O)=O	3.41
Cc1ccc(-c2nn(C)c(=O)c3ccccc23)cc1CNC(=O)NC1CCCCC1	11.1
CCCn1c(C)cc(C(=O)COC(=O)c2nccnc2N)c1C	8.53
COc1ccc(C(=O)NC(=S)Nc2ccc(N3CCCC3)cc2)cc1OC	11.3
O=C(O)c1ccc(/C=N/NC(=S)NC2CCCCC2)cc1	11.3
CCOc1ccc(C(=O)Nc2ccc(CN3CCOCC3)cc2)cc1Br	0.28
COc1ccc(C2=NOC(Cn3c(Cc4ccc(Cl)cc4)nc4c3c(=O)n(C)c(=O)n4C)C2)cc1 (stereo not shown)	6.87
COc1ccc2nc(SC(C)C(=O)NC3(C#N)CCCCC3)[nH]c2c1 (stereo not shown)	8.93
O=C(CCNS(=O)(=O)c1ccc2[nH]c(=O)oc2c1)NCc1ccc(F)cc1	17.8
COc1c(/C=N/Nc2nc(N3CCCCC3)nc(N3CCCCC3)n2)cccc1[N+](=O)[O-]	0.144
CNC(=O)C1(C(F)(F)F)C/C(=C\CCO)CCCO1 (stereo not shown)	11.4
Cc1cccc(/N=C/C2=C(O)CC(C)(C)CC2=O)n1	15.7
CN1CC=C2C(C#N)=C(N)C(C#N)(C#N)C(c3ccsc3)C2C1 (stereo not shown)	2.18
Cc1cc(C=C2C(=O)N(C)C(=S)N(C)C2=O)c(C)n1C1CCCCC1	6.27
CCCSc1nc(C)c(C(C)=O)cc1C#N	7.88
O=C(NCCCc1ccccn1)C1CCC(=O)N(Cc2cccc(F)c2)C1 (stereo not shown)	14.3
CC(=O)NCCc1c[nH]c2ccccc12	7.32
Cc1cc(C)cc(NC(=O)CCC(=O)N2CCSc3ccccc32)c1	6.19
Cc1ccc(S(=O)(=O)NCCC(=O)N2CCCCCCC2)cc1C	-2.26
CCN1CCN(c2cc(C)c3cc(NC(=S)N4CCN(c5ccccc5F)CC4)ccc3n2)CC1	13.5
Cc1ccc(NC(=O)C2CCN(S(C)(=O)=O)CC2)c(C)c1	14
Cc1cc(N2CCN(c3ccccc3)CC2)nc(N)n1.Cl	-15.6
